# Experimental data as given in PubChem BioAssay (NCATS).
# Inconclusive results, whose numbers are uncertain, are shown with a selection of clear calls. For part of these data: Potencies of inconclusive entries are doubtful fits and often do not repeat. The source made the active and inactive calls. Unless noted, the call rests on the fitted dose curve; in most records, active means well fitted curve in the direction sought with a large enough effect; inconclusive means small, poorly fitted or top-dose-only effect, or another doubt; inactive means no such curve, though single readings can be large; an effect the other way counts as inactive or inconclusive.
# Columns and labels:
# [1] = biological target: Fructose-bisphosphate aldolase (Giardia intestinalis (strain ATCC 50803 / WB clone C6)) (UniProt A8B2U2); assay: qHTS Assay for Inhibitors of Fructose-1,6-bisphosphate Aldolase from Giardia Lamblia: Primary screen confirmation (AID 2787); further: nearly all actives have a fitted effect of over 45% in size; further: potency means the concentration at half of the fitted maximal effect;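 on activity change, negative = inhibition: aldolase product measured through coupled diaphorase step turning resazurin into fluorescent resorufin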
# Chain of UniProt A8B2U2 (A8B2U2 whole entry, looked up): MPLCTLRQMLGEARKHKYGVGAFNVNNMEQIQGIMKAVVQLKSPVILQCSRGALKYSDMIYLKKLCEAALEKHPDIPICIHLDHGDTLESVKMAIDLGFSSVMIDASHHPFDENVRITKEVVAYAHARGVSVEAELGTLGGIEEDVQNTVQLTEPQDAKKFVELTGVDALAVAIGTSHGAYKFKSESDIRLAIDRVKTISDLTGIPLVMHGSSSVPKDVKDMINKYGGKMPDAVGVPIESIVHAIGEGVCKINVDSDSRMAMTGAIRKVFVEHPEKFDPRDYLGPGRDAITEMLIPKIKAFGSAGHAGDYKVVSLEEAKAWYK
# In short: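 Confirmation of primary hits by qHTS up to 57.5 uM final compound. Enzyme at 40 nM with 30 uM ZnCl2, 10 min RT pre-incubation, then substrate/coupling/resorufin-forming detection mix for 20 min before fluorescence read at 525/598 nm.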
# [2] = biological target: Fructose-bisphosphate aldolase A (Oryctolagus cuniculus) (UniProt P00883); assay: qHTS Assay for Inhibitors of Fructose-1,6-bisphosphate Aldolase from Giardia Lamblia: Rabbit FBPA Selectivity (AID 2794); further: nearly all actives have a fitted effect of over 60% in size; further: potency means the concentration at half of the fitted maximal effect
# Chain of UniProt P00883 (P00883 whole entry, looked up): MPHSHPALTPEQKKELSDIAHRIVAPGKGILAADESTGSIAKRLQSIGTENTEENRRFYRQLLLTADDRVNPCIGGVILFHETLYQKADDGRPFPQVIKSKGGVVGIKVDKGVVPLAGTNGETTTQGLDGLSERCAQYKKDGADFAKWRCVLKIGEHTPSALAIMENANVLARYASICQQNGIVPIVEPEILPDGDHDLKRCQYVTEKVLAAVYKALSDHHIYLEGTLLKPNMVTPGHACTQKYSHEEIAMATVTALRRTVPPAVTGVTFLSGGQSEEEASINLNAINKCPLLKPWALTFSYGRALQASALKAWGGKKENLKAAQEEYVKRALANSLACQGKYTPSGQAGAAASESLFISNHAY
# In short: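 Rabbit FBPA, coupled to a resorufin-type fluorescent read (525/598 nm), tests whether primary hits hit Class I aldolase. Compound (up to 57.5 uM final) sits 10 min at RT with coupling enzyme before substrate/detection mix; read after 20 min RT.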
# [3] = AP1 Signaling Pathway (AID 357; active means well fitted curve in either direction with a large enough effect, not every such curve was filed as active; inconclusive means small, poorly fitted or top-dose-only effect, or another doubt; further: top concentration of the series differs between compounds); details: ME-180 AP-1-bla reporter, EGF-induced, beta-lactamase ratio, 5 h; at 17.2 µM (top of the series) unless noted
# In short: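 ME-180 cells with beta-lactamase reporter under AP-1 response element, stimulated with EC50 EGF; compounds tested in titration series, 5 h at 37 °C. CCF4 substrate added 2.5 h at room temperature; 460/530 nm emission ratio gave %activity and AC50.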
# [4] = qHTS Assay for Inhibitors of Fructose-1,6-bisphosphate Aldolase from Giardia Lamblia: Giardia lamblia growth inhibition (AID 2785); details: Giardia lamblia trophozoite growth inhibition; activity change, negative = inhibition: at 57.5 µM (top of the series); further: nearly all actives have a fitted effect of over 70% in size; further: potency means the concentration at half of the fitted maximal effect
# In short: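 G. lamblia WB trophozoites (100 cells/well) in modified TYI-S-33 medium, pH 7.0, were exposed to pin-transferred compounds or DMSO for 48 h at 37C in sealed bags. Viability was read as ATPlite luminescence after 20 min at room temperature.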
# [5] = qHTS Assay for Inhibitors of Fructose-1,6-bisphosphate Aldolase from Giardia Lamblia: Mammalian cellular toxicity (AID 2786); details: mammalian cell viability counter-screen; viability change, negative = toxicity: at 57.5 µM (top of the series);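 further: compound exposure lasted 48 h before reading; nearly all actives have a fitted effect of over 60% in size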
# In short: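 Chinese hamster ovary cells (250/well, DMEM with 10% FBS and penicillin/streptomycin) were exposed to compounds for 48 h at 37 °C, 5% CO2. Viability was taken as cellular ATP content, read with ATPlite reagent after 20 min.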
# On the % scale 0 is the no-effect control and ±100 the full control effect; tags describe the fitted curve by direction and shape.
smiles,measurement,setting,value
O=C(COc1ccc(Cl)cc1)N1CCN(Cc2ccc([N+](=O)[O-])cc2)CC1,Potency,[1],inactive
COc1ccc(CCn2c(NN=C3CCCCC3)nc3c2c(=O)[nH]c(=O)n3C)cc1,Potency,[2],"inconclusive: 31.6 µM [inhibitor, partial curve]"
Nc1ccccc1O.O.O=C(O)[C@H]1[O][Sb][O][C@H]1C(=O)O,"activity change, negative = inhibition",[3],inconclusive: 39.1% [activator] [at 7.69 µM]
NNc1c(C(N)=O)c2c(N)ncnc2n1[C@@H]1O[C@H](CO)[C@@H](O)[C@@H]1O,"activity change, negative = inhibition",[3],inconclusive: -51.1% [inhibitor] [at 7.69 µM]
CCn1c(O)c(C(c2ccccn2)c2c(O)n(CC)c(=S)[nH]c2=O)c(=O)[nH]c1=S,"activity change, negative = inhibition",[4],inactive: 17.8% [at 10.4 µM]
same,Potency,[2],inactive
CN1CCN(Cc2c(F)cccc2Cl)CC1,Potency,[5],inactive
C[C@]12CC[C@@H]3c4cc(O)c(O)cc4CC[C@H]3[C@@H]1CC[C@@H]2O,Potency,[1],active: 3.98 µM
same,Potency,[2],"inconclusive: 63.1 µM [inhibitor, partial curve]"
CN1C(=O)NC(=O)/C(=C\c2ccc([N+](=O)[O-])o2)C1=O,Potency,[4],"inconclusive: 31.6 µM [inhibitor, single point]"
same,Potency,[5],inactive
same,Potency,[1],"inconclusive: 28.2 µM [inhibitor, partial curve]"
same,Potency,[2],"inconclusive: 63.1 µM [inhibitor, partial curve]"
O=C(O)CN1C(=O)CN=C(c2ccccn2)c2cc(Cl)ccc21,Potency,[1],inactive
CCOC(=O)[C@@H]1[C@@H]2c3ccccc3-c3ccccc3[C@H]2C[C@H]1O,"activity change, negative = inhibition",[3],inactive: -11.4% [at 7.69 µM]
